For 108 compounds, inhibition results are on record in PubChem BioAssay AID1362 (SRMLSC, 2008).

Some of the results follow. These are further read-outs of the screen, such as a control signal, another cell line or another target. No call is given for them. Most of these compounds were active or inconclusive in the main read-out, so they are no random draw.

The inhibition is the change of the read-out against control, counted positive when it falls.

The assay can be described thus: growth inhibition of WT strain, primary screen, mitochondrial fusion inhibitor project, WT and mutant strains, chemical genetic (AID 1362). Further: tested in S. cerevisiae. To be noted: mitochondrial fusion phenotypic screen, at 10 µM.
Turning to `c1ccc(-c2csc3ncnc(NCC4COc5ccccc5O4)c23)cc1` (stereo not drawn), the inhibition amounted to 45.6%.
On to `CCOc1cccc(CNc2ccc(O)cc2)c1OCc1ccc(Cl)cc1Cl`, for which the inhibition worked out at 30.3%.
With `O=[N+]([O-])c1ccc(N/N=C/c2c[nH]c3ccccc23)c(S(=O)(=O)Nc2ccc(Cl)cc2)c1` the figure was 89.7%; with `O=C(NC1CCS(=O)(=O)C1)c1ccc(-c2ccc(Br)cc2)o1` (stereo not drawn), 8.91%; with `Cc1cccn2cc(CSc3nnc(Nc4ccc(C(C)C)cc4)s3)nc12`, 25.1%.
With `CC(C)(C)c1ccc(NC(=O)CNC2CCCc3ccccc32)cc1` (stereo not drawn) the figure was 64.3%.
For `CN=C1S/C(=C\c2cc(C)n(-c3ccccc3F)c2C)C(=O)N1C`, the inhibition amounted to 27.1%.
In the case of `COc1ccc(Cc2nc3ccc(S(=O)(=O)N4CCOCC4)cc3[nH]2)cc1` it was 5.2%.
For the compound `CCc1cc(-c2n[nH]c(=S)n2-c2cccc(C)c2)cs1`, the inhibition came out at 19.7%.
For the compound `Cc1cc(N/N=C/c2ccccc2)nc(NCc2ccccc2)n1`, the inhibition came out at 34.4%.
On to `COc1ccccc1NC(=S)NC1CCCCCC1`, for which the inhibition was 21.9%.
Turning to `CCOC(=O)c1c(NC(=O)OC)sc(C(=O)N(C)C)c1C`, the inhibition was found to be 20.2%.
`FC(F)(F)c1cccc(NC(=S)NCc2ccc(Cl)cc2)c1`: the inhibition was found to be 38.5%.
In the case of `Cc1nn(Cc2ccccc2Cl)c(C)c1NC(=O)NC12CC3CC(CC(C3)C1)C2` it was 20.6%.
As to `Cc1ccc(Nc2nc(-c3cccs3)cs2)nc1`, the inhibition was found to be 56.5%.
Regarding `CCC(C)/C(C)=N/NC(=O)c1ccc(COc2ccc(Cl)c(C)c2)cc1` (stereo not drawn), the inhibition worked out at 67.3%.
Consider `CCCCSc1nnc(-c2ccccc2)c2ccccc12`, for which the inhibition was found to be 25.3%.
On to `O=C(OC1CCCCC1)c1ccc(NC(=O)c2ccco2)cc1`, for which the inhibition was 65.2%.
In the case of `CC(C)(C)c1ccc(OC(=O)c2ccc3nsnc3c2)cc1`, the inhibition was 41.7%.
Regarding `CC(C)(C)c1ccc(OCc2nc(-c3ccccn3)no2)c(Br)c1`, the inhibition was determined as 39.9%.
`CCOC(=O)c1c(C)n(-c2ccc(C)cc2)c2ccc(OCC(O)CN3CCN(C)CC3)cc12` (stereo not drawn): the inhibition came to 33.7%.
On to `Cc1cccc(CSC(Nc2ccc(F)cc2)=C(C#N)C#N)c1`, for which the inhibition was 55.4%.
For the compound `O=C(NCc1ccco1)c1cc(-c2ccccc2)on1`, the inhibition worked out at 4.37%.
On to `COc1ccc(C(=O)Nc2nc3ccccc3s2)cc1OC`, for which the inhibition was found to be 28.3%.
With `Nc1nc(CSc2nnnn2-c2ccccc2)nc(N2CCCc3ccccc32)n1`, the inhibition is -5.93%.
`CC1CCCN(C(=O)N2c3ccccc3Sc3ccccc32)C1` (stereo not drawn): the inhibition came out at 18.5%.
As for `CN1C(=O)c2ccccc2Sc2ccc(NC(=O)N3CCCC3)cc21`, the inhibition is 32.4%.
Regarding `O=C(Nc1ccc([N+](=O)[O-])cc1)Nc1nc(-c2ccc(Cl)s2)cs1`, the inhibition came out at 80.6%.
With `Cn1c(NCCCO)nc2c(c1=O)C1(CCCCC1)Cc1ccccc1-2` the figure was 25.2%.
With `O=C1C=C(c2ccccc2)C(=O)N1Nc1ccccc1` the figure was 84.5%.
`C/C(=N\OCC(=O)NC12CC3CC(CC(C3)C1)C2)c1cc2ccccc2o1`: the inhibition amounted to 23.8%.
Take `O=C(Nc1nc(-c2ccccn2)cs1)c1ccc(Br)s1`: the inhibition was 14.8%.
For the compound `Cc1ccc(Nc2nc(N)c([N+](=O)[O-])c(NCc3ccco3)n2)cc1C`, the inhibition was 19.8%.
In the case of `CCCCCCCCCCCCCCCC[n+]1ccc(C(N)=O)cc1` it was 99%; in that of `Cc1ccccc1-c1ncc(CN2CCC(CO)(CCCc3ccccc3)CC2)cn1`, 82.7%.
For `CN(C)CCCN1c2ccccc2Sc2ccc(C(F)(F)F)cc21`, the inhibition stood at 95%.
With `Cn1c(-c2sccc2OCc2ccc(Cl)cc2Cl)n[nH]c1=S` the figure was 52.3%; with `CCOc1cc(-c2nc(C)c(C(C)=O)n2O)ccc1OCC(=O)Nc1cccc(C)c1`, 34.2%; with `c1ccc(-c2csc3ncnc(N4CCc5ccccc5C4)c23)cc1`, -18.6%.
With `CC(=O)Oc1cc2c(cc1Cl)C1(CC(c3ccccc3Cl)O2)CC(C)(C)NC(=S)N1` (stereo not drawn) the figure was 27.9%; with `Cc1ccc(C(C)NC(=O)/C(C#N)=C\c2c(C)[nH]c3ccccc23)cc1` (stereo not drawn), 69.1%; with `O=C(OC(c1ccccc1)c1nccc2ccccc12)c1cccc([N+](=O)[O-])c1` (stereo not drawn), 63.8%.
Regarding `Cc1cc(Cl)ccc1Oc1ncc(CN2CCN(c3ccccc3)CC2)s1`, the inhibition is 47.2%.
For the compound `Cc1ccc(NS(=O)(=O)c2ccc(C)c(NC(=O)COc3ccccc3)c2)c(C)c1`, the inhibition was 52.6%.
`Cc1cccc(OCC(=O)Nc2nc3ccc([N+](=O)[O-])cc3s2)c1C`: the inhibition was 4.39%.
Consider `COc1ccccc1NC(=S)N(Cc1ccc(C)cc1)Cc1cccnc1`, for which the inhibition was 34%.
With `Cc1cc(Nc2cccc(C(F)(F)F)c2)n2nc(C)nc2n1` the figure was -5.29%.
In the case of `CC(=O)Nc1ccc(S(=O)(=O)N2CCN(C)CC2)cc1` it was -12.3%.
As for `CCc1c(C)nc(Nc2nc(C)c3ccc(OC)cc3n2)[nH]c1=O`, the inhibition turned out to be 37.2%.
With `CC(C)(C)c1ccc(S(=O)(=O)Nc2ccc(Cc3ccncc3)cc2)cc1`, the inhibition stood at 1.83%.
For the compound `CCOC(=O)c1c(C)[nH]c(N=Nc2cccc(C)c2)c1C`, the inhibition was determined as 63.1%.
In the case of `COc1ccc(CCN(Cc2cc3cc(C)cc(C)c3nc2Cl)C(=O)C2CC2)cc1` it was -1.48%; in that of `O=C(NC1CC1)c1ccc2c(c1)C1C3CCC(C3)C1C(c1ccccc1)N2` (stereo not drawn), 40.4%.
For the compound `COc1ccc(/C=C/C(=O)c2ccc(O)cc2)cc1COc1ccc(F)cc1`, the inhibition was -6.2%.
In the case of `O=[N+]([O-])c1ccc(O)c(-c2nc(-c3ccccc3)c(-c3cccs3)[nH]2)c1`, the inhibition was 55.1%.
`CCc1ccc(C2=CC(c3cc(Br)ccc3F)n3ncnc3N2)cc1` (stereo not drawn): the inhibition turned out to be 14.9%.
As to `O=[N+]([O-])c1ccc(/C=N/Nc2nc(N3CCCCCC3)nc(N3CCCCCC3)n2)o1`, the inhibition was 6.1%.
For the compound `O=S(=O)(Nc1cccc(-c2nc3cccnc3s2)c1)c1ccc2c(c1)OCCO2`, the inhibition worked out at 22%.
On to `CC(C)Oc1ccccc1OCCCOc1cccc2cccnc12`, for which the inhibition amounted to 44.3%.
For the compound `S=C(NCCNCc1ccccc1)NC1CCCCC1`, the inhibition worked out at 4.03%.
With `O=C1c2cccc3c([N+](=O)[O-])ccc(c23)C(=O)N1Cc1cccnc1` the figure was 36.9%.
As to `S=C(NCc1ccc2[nH]c3c(c2c1)CCCC3)Nc1ccccc1`, the inhibition amounted to 47%.
With `N#CCc1ccc(NS(=O)(=O)c2ccc(C3CCCCC3)cc2)cc1` the figure was 2.1%; with `CC(C)(C)[C@@H]1C=C(C(=O)N2CCN(Cc3ccc4c(c3)OCO4)CC2)O[C@H](OCc2ccc(CO)cc2)C1`, 60.4%.
Consider `COc1cccc(C(=O)N/N=C(/c2ccccc2)c2ccccn2)c1`, for which the inhibition is 33.7%.
With `CCOC(=O)c1c(N)sc(C(O)(C(F)(F)F)C(F)(F)F)c1-c1ccccc1` the figure was 33.9%; with `N#Cc1c(NC(=S)NC(=O)C2CCCC2)sc2c1CCCCC2`, 5.24%.
Turning to `COc1cc(OC)cc(C(=O)N2CCC(n3c(C)nc4cc(F)ccc43)CC2)c1`, the inhibition amounted to 14.4%.
With `CC(C)c1ccc(-c2noc(C3CCCN(C(=O)c4ccc(F)cc4F)C3)n2)cc1` (stereo not drawn), the inhibition was found to be 27.8%.
For `CCC[C@@H]1C[C@@]1(CCC)[C@@H](NP(=O)(c1ccccc1)c1ccccc1)c1ccc(C(=O)OC)cc1`, the inhibition was -0.22%.
Take `CC(C)SCc1cc(N2CCCC2)nc(-c2ccccc2)n1`: the inhibition was 0.55%.
For the compound `COc1cc(/C=N/NC(=O)CCc2ccccc2)ccc1O`, the inhibition was determined as 6.57%.
In the case of `Cc1ccc(-c2nnc3sc(C4COc5ccccc5O4)nn23)cc1` (stereo not drawn) it was 43%.
Regarding `S=c1[nH]c(-c2ccccc2)cn1/N=C/c1ccccc1Br`, the inhibition worked out at 62.8%.
Turning to `Cc1cccc(Cn2c(Cc3ccccc3)nc3ccccc32)c1`, the inhibition came out at 51.5%.
`CCOC(=O)C1(S(=O)(=O)c2ccc(Cl)cc2)CCN(Cc2ccc(C)cc2)CC1`: the inhibition was 46.9%.
Take `COc1ccc(Br)cc1CN(C)CC(=O)Nc1ccccc1Cl`: the inhibition was 16.6%.
With `S=c1[nH]nc(Cc2ccc(Br)cc2)n1/N=C/c1ccc(Cl)cc1`, the inhibition came to 85.7%.
With `Cc1ccccc1COC(=O)c1nn(-c2ccccc2)nc1N` the figure was 7.64%; with `CCOC(=O)/C(=C/c1c2ccccc2cc2ccccc12)NC(=O)c1ccccc1`, 44.8%; with `CN(C)c1ccnc(N(Cc2ccccc2)Cc2ccccc2)c1C#N`, 65.8%.
As to `Cc1ccc(NC(=S)Nc2ccc(OC(F)F)c(Cl)c2)cc1F`, the inhibition was found to be 60.9%.
With `O=C(N/N=C/c1cccc(F)c1)c1cc(-c2ccco2)nc2ccccc12`, the inhibition was determined as 10.2%.
In the case of `CN(C)CCCN(C(=O)/C=C/c1cccs1)c1nc2ccc(F)cc2s1` it was 83.9%; in that of `O=C(Nc1ccccc1Cc1ccccc1)c1ccccc1NS(=O)(=O)c1ccc(Cl)s1`, 67.6%.
On to `Cc1ccc(NCc2n[nH]c(=S)n2Cc2ccccc2)cc1Cl`, for which the inhibition is 30.2%.
In the case of `Cc1scc(-c2n[nH]c(=S)n2Cc2ccccc2)c1C` it was 34.1%; in that of `FC(F)(F)c1cc(Sc2ccccc2)nc(-c2ccccn2)n1`, 55.8%; in that of `CCOC(=O)Cc1c(Sc2ccccc2)c2cc(C)ccc2n1C`, -1.94%.
Consider `CCc1cc(-c2n[nH]c(C)c2Oc2ccc(C(C)C)cc2)c(O)cc1O`, for which the inhibition amounted to 81%.
Turning to `COc1cc(/C=C2/SC(=S)NC2=O)ccc1OS(=O)(=O)c1ccc(C)cc1`, the inhibition was determined as 35.2%.
For `Cc1cc(C)nc(N2CCC(C(=O)NCCc3ccc(F)cc3)CC2)n1`, the inhibition came to 16.7%.
`Clc1cccc(-c2cc3nc4c(c(N5CCN(c6cnccn6)CC5)n3n2)CCCC4)c1`: the inhibition was determined as 22.8%.
For `Oc1nc(Nc2ccc(Cl)cc2Cl)sc1/C=C1\C=Nc2ccccc21`, the inhibition was found to be 40%.
Consider `CCOC(=O)N1CCC(NC(=O)c2cc(-c3ccc(F)cc3)[nH]c2C)CC1`, for which the inhibition is -5.91%.
Turning to `CN(C)c1cc(N/N=C\c2ccccc2)nc(N(C)C)n1`, the inhibition worked out at 44.9%.
`Cc1ccc2c(c1)c(N=O)c(O)n2Cc1ccc(Cl)cc1`: the inhibition turned out to be 24.5%.
For `COc1ccc(C(C(=O)NC2CCCC2)N(Cc2ccccc2)C(=O)c2nsc(Cl)c2Cl)cc1` (stereo not drawn), the inhibition was found to be 23.5%.
Regarding `CC1CCc2c(sc(NC(=O)COC(=O)c3ccc(O)cc3)c2C#N)C1` (stereo not drawn), the inhibition was found to be 20.3%.
Consider `CCC1=NN2C(=N)/C(=C\c3cccn3-c3cccc(Cl)c3)C(=O)N=C2S1`, for which the inhibition was 17.3%.
`CSC(=S)N/N=C(\C)c1ccccc1`: the inhibition was determined as 37.2%.
As to `Cc1nn(C(C)(C)C)c(OC(=O)c2cccs2)c1Sc1ccccc1`, the inhibition was found to be 22.5%.
`NC(=O)c1cc(Cc2ccccc2)sc1NC(=O)c1ccco1`: the inhibition was 66.3%.
In the case of `C/C(=N\NC(=O)COc1ccc(C(C)(C)C)cc1)c1ccc(-n2ccnc2)cc1`, the inhibition came to 68.1%.
With `Cc1ccc(C)c(C(=O)N(Cc2nc(-c3ccc(Cl)cc3)no2)C(C)C)c1` the figure was 25.7%; with `Cc1cccc(NC(=S)NNC(=O)COc2ccc(Cl)cc2Cl)c1`, 11.9%.
In the case of `CCNc1nc(SCCOc2ccc(Cl)cc2Cl)nc(N(C)C)n1` it was 8.4%.
For the compound `Cc1ccccc1S(=O)(=O)c1c(C)cc(C)n(CC(C)C)c1=O`, the inhibition was 17.2%.
